Assay results as given in US20130095097A1 (EMERGENT PRODUCT DEVELOPMENT SEATTLE, published 2013).

Experiments:
[1] = biological target: T1, CD28 mIg (UniProt P10747 19-152); assay: SPR, CD28-mIgG immobilized, bivalent analyte model, first off rate kd (I)
Description: (§1) Surface plasmon resonance (SPR) measurements were performed on a Biacore T100 SPR using HBS-P+ (GE Healthcare) as a running buffer. CD28-mIgG (25 μg/mL in 10 mM sodium acetate, pH 4.0) was directly immobilized onto a CM5 chip using standard amine coupling chemistry (Biacore Amine Coupling Kit, GE Healthcare), with final immobilization levels between 800 and 1900 Ru (resonance units). 2E12 binding domain constructs were injected at 25° C. or 37° C. for 150 seconds at a flow rate of 30 μl/min in a series of concentrations from 10 nM to 1 μM. Dissociation was monitored for 1200 seconds, and the surface was regenerated by injecting 50 mM NaOH for 60 seconds. Binding interactions with the surface were stable through at least 60 regeneration cycles. Data were analyzed using BiaEvaluation for the T100 software (version 2.0, GE Healthcare).
(§2) Surface plasmon resonance was used to measure binding of immobilized CD28 by 2E12 binding domain constructs. […] Binding kinetics of the bivalent 2E12 constructs (e.g., 2E12 mAb, FIGS. 27A-27B) to immobilized CD28 could not be fit to a 1:1 Langmuir binding model, but could be fit with high accuracy to a bivalent analyte binding model (Table 5). Equilibrium dissociation constants (1(D) could be calculated with high accuracy for each construct by fitting the observed response at saturation to a steady-state equilibrium model (Table 5).

[2] = biological target: T1, CD28 mIg; assay: SPR, CD28-mIgG immobilized, bivalent analyte model, first on rate ka (I)
Description: as §1, §2

[3] = biological target: T1, CD28 mIg; assay: SPR, CD28-mIgG immobilized, kinetic KD, bivalent analyte model, initial binding at the first site only
Description: as §1, §2

[4] = biological target: T1, CD28 mIg; assay: SPR, CD28-mIgG immobilized, steady-state equilibrium KD
Description: as §1, §2

[5] = biological target: T1, CD28 mIg; assay: SPR, CD28-mIgG immobilized, bivalent analyte model, second on rate (avidity); parameters: unit not given here
Description: as §1, §2

[6] = biological target: T1, CD28 mIg; assay: SPR, CD28-mIgG immobilized, bivalent analyte model, second off rate (avidity)
Description: as §1, §2

- koff [1]: 0.00411 s⁻¹
- kon [2]: 170000 M⁻¹ s⁻¹
- Kd [3]: 24.2 nM
- Kd [4]: 19.4 nM
- ka (II) [5]: 0.000138
- kd (II) [6]: 0.0003 s⁻¹
B1: 2E12 SMIP protein (M0039) (other)
chain: VQVQLKESGPGLVAPSQSLSITCTVSGFSLTGYGVNWVRQPPGKGLEWLGMIWGDGSTDYNSALKSRLSITKDNSKSQVFLKMNSLQTDDTARYYCARDGYSNFHYYVMDYWGQGTSVTVSSGGGGSGGGGSGGGGSGGGGSDIVLTQSPASLAVSLGQRATISCRASESVEYYVTSLMQWYQQKPGQPPKLLISAASNVESGVPARFSGSGSGTDFSLNIHPVEEDDIAMYFCQQSRKVPWTFGGGTKLEIKRDQ[human IgG1 Fc with changes not written out]
notes: also called anti-CD28 SMIP protein; bivalent SMIP protein form of 2E12
